The RNAGym collection of RNA variant scans (doi:10.1101/gad.245936.114)
Variants at the background level are over-represented here.

B1: tRNA (parent)
chain: CUCUCGGUAGCCAAGUUGGUUUAAGGCGCAAGACUUUAAUUUAUCACUACGAAAUCUUGAGAUCGGGCGUUCGACUCGCCCCCGGGAGAUUUUUUCCUCGAGCAA

Variants of: B1
Test: nonsense suppression (GFP-seq) (ratio to wild type); higher = more function; SUP4oc tRNA, yeast GFP reporter sort-seq
Procedure, shortened: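 Each variant's nonsense suppression (GFPSEQ) is a cell-share-weighted bin median GFP/RFP relative to the unmutated parent tRNA. Yeast with genome-integrated tRNA variants from a ~3% random-mutation library, a galactose-driven GFP ochre reporter and RFP were grown in raffinose/galactose medium with 80 mg/L adenine, then sorted into GFP/RFP bins for Illumina sequencing. Variants needed ≥100 reads and ≥30 cells.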

Point of comparison: CUCACGGUAGCCUAGUUGGUUUAAGGCGCAAGACUUUAAUUUAUCACUACGAAAUCUUGAGAUCGGGCGUUCGACUCGCCCCCGGGAGAUUUUUUCCUCGAGCAA [U4A A13U], nonsense suppression 0.18. Against it:
- CUCACGGUAGCCCAGUUGGUUUAAGGCGCAAGACUUUAAUUUAUCACUACGAAAUUUUGAGAUCGGGCGUUCGACUCGCCCCCGGGAGAUUUUUUCCUCGAGCAA [U4A A13C C56U] — lower, ≤ 0.026
- CUCACGGUAGCCCAGUUGGUUUAAGGCGCAAGACUUUAAUUUAUCACUACGAAAUCUUGAGAUCGGGCGUUCGACUCGCCCCUCGGAGAUUUUUUCCUCGAGCAA [U4A A13C C83U G84C] — lower, ≤ 0.026
- CUCACGGUAGCCACGUUGGUUUAAGGCGCACGACUUUAAUUUAUCACUACGAAACCUUGAGAUCGGGCGUUCGACUCGCCCCCGGGAGAUUUUUUCCUCGAGCAA [U4A A14C A31C U55C] — lower, ≤ 0.026
- CUCACGGUAGCCAGGUUGGUUUAAGGCGCAAGUAUUUAAUUUAUCACUACGAAAUCUUGAGAUCGGGCGUUCGACUUGCCCCCGGGAGAUUUUUUCCUCGAGCAA [U4A A14G A33U C34A C77U] — lower, ≤ 0.026
- CUCACGGUAGCCAGGUUGGUUUAAGGCGCAAGACUUUAAUUUAUCACUACGAAAUCUUGAGAUCGGGCCCUCGACUCGCCCCAGGGAGAUUUUUUCCUCGAGCAA [U4A A14G G69C U70C C83A] — lower, ≤ 0.026
- CUCACGGUAGCCAGGUUGGUUUAAGGCGCAAGACCUUAAUUUAUCACUACGAAAUCCUGAGAUCGGGCGUUCGACUCGCCCCCGGGAGAUUUUUUCCUCGAGCAA [U4A A14G U35C U57C] — lower, ≤ 0.026
- CUCACGGUAGCCAUGUUGGUUUAAGGCGAAAGACUUUAAUUUAUCACUACGAAAUCUUGAGAUCUGGCGUUCGACUCGCCCCCGGGAGAUUUUUUCCUCGAGCAA [U4A A14U C29A G65U] — lower, ≤ 0.026
- CUCACGGUAGCCAAGUUGGUUUCAGGCGCAAGUCUUUAAUUUAUCACUACGAAAUCUUGAGAUCGGGCGUUCGACUCGCCCCCGGGAGAUUUUUUCCUCGAGCAA [U4A A23C A33U] — lower, ≤ 0.026
- CUCACGGUAGCCAAGUUGGUUUCAGGCUCAAGACUUUAAUUUAUCACUACGAAAUCUUGAGAUCGGGGGUGCGACGCGCCCCCGGGAGAUUUUUUCCUCGAGCAA [U4A A23C G28U C68G U71G U76G] — lower, ≤ 0.026
- CUCACGGUAGCCAAGUUGGUUUACGGCGCAAGACUUUAAUUUAUCACUACGAAAUCUUGAGAUCGGGCGUUCGACUCGCCCCCGGGAGAUUUUUUCCUCGAGCAA [U4A A24C] — lower, ≤ 0.026
- CUCACGGUAGCCAAGUUGGUUUACGGCGCAAGACUUUAAUUUAUCACUACGAAAUCUUGAGAUCGGGCGUUCGAUUCGCCCCCGGGAGAUUUUUUCCUCGAGCAA [U4A A24C C75U] — lower, ≤ 0.026
- CUCACGGUAGCCAAGUUGGUUUAUGGCGCAAGACUUUAAUUUAUCACUACGAAAUCUUGAGAUCGGGCGUUCGACUCGCCCCCGGGAGAUUUUUUCCUCGAGCAA [U4A A24U] — lower, 0.0458
- CUCACGGUAGCCAAGUUGGUUUAAGGCGCUAGACUUUAAUUUAUCACUACGAAAUCUUGUGAUCGGGCGUUCGACUCGCCCCCGGGAGAUUUUUUCCUCGAGCAA [U4A A30U A60U] — lower, ≤ 0.026
- CUCACGGUAGCCAAGUUGGUUUAAGGCGCAGGACUUUAAUUUAUCACUACGAAAUCUUGAGAUCGGGCGUUCGACUCGCCCCCGGGAGAUUUUUUCCUCGAGCAA [U4A A31G] — lower, ≤ 0.026
- CUCACGGUAGCCAAGUUGGUUUAAGGCGCAUGACUUUAAUUUAUCACUACGAAAUCUUGAGAUCGGGCGUUCGACUCCCCCCCGGGAGAUUUUUUCCUCGAGCAA [U4A A31U G78C] — lower, ≤ 0.026
- CUCACGGUAGCCAAGUUGGUUUAAGGCGCAAGGCUUUAAUUUAUCACUACGAAAUCUUGAGAUCGGGCGUUCCACUCGCCCCCGGGAGAUUUUUUCCUCGAGCAA [U4A A33G G73C] — lower, ≤ 0.026
- CUCACGGUAGCCAAGUUGGUUUAAGGCGCAAGGCUUUAAUUUAUCACUACGAAAUCUUGAGAUCGGGCGUUCGACUCGCCCCCCGGAGAUUUUUUCCUCGAGCAA [U4A A33G G84C] — lower, ≤ 0.026
- CUCACGGUAGCCAAGUUGGUUUAAGGCGCAAGUCUUUAAUUUAUCACUACGAAAUCUUGAGAUCGGGCGUUCGACUCGCCCCCGGGAGAUUUUUUCCUCGAGCAA [U4A A33U] — lower, ≤ 0.026
- CUCACGGUAGCCAAGUUGGUUUAAGGCGCAAGACUUUAAUUUAUCACUACGAAUUCUUGAGAUCGGGCGUUCGACUCGCCCCCGGGAGAUUUUUUCCUCGAGCAA [U4A A54U] — higher, 0.191
- CUCACGGUAGCCAAGUUGGUUUAAGGCGCAAGACUUUAAUUUAUCACUACGAAUUCUUAAGAUCGCGCGUUCGUCUCGCCCCCGGGAGAUUUUUUCCUCGAGCAA [U4A A54U G59A G66C A74U] — lower, ≤ 0.026
- CUCACGGUAGCCAAGUUGGUUUAAGGCGCAAGACUUUAAUUUAUCACUACGAAAUCUUGUGAUCGGGCGUUCGACUCGCCCCCGGGAGAUUUUUUCCUCGAGCAA [U4A A60U] — higher, 0.52
- CUCACGGUAGCCAAGUUGGUUUAAGGCGCAAGACUUUAAUUUAUCACUACGAAAUCUUGAGCUCGGGCGUUCGACUCGCCCCCGGGAGAUUUUUUCCUCGAGCAA [U4A A62C] — lower, ≤ 0.026
- CUCACGGUAGCCAAGUUGGUUUAAGGCGCAAGACUUUAAUUUAUCACUACGAAAUCUUGAGGUCGGGCGUUCGACUCGCCCCCGGGAGAUUUUUUCCUCGAGCAA [U4A A62G] — lower, ≤ 0.026
- CUCACGGUAGCCAAGUUGGUUUAAGGCGCAAGACUUUAAUUUAUCACUACGAAAUCUUGAGAUCGGGCGUUCGCCUCGCCCCCGGGUGAUUUUUUCCUCGAGCAA [U4A A74C A87U] — lower, ≤ 0.026
- CUCACGGUAGCCAAGUUGGUUUAAGGCGCAAGACUUUAAUUUAUCACUACGAAAUCUUGAGAUCGGGCGUUCGUCUCGCCCCCGGGAAAUUUUUUCCUCGAGCAA [U4A A74U G88A] — lower, ≤ 0.026
- CUCACGGUAGCCAAGUUGGUUUAAGGCGCAAGACUUUAAUUUAUCACUACGAAAUCUUGAGAUCGGGCGUUCGACUCGCCCCCGGGAGUUUUUUUCCUCGAGCAA [U4A A89U] — lower, ≤ 0.026
